Measured values from PubChem BioAssay AID463173 (ICCB-Longwood Screening Facility, Harvard Medical School, 2010).
Screen size: about 52,000 compounds; about 1,700 (3.3%) were called active. No stated cut-off is given here; in the data, active means survival mostly below about 52% (no sharp cut-off); inactive means mostly above about 56%. This is one part of the list.

test system: Wild type; test: growth inhibition of S. aureus wild type versus tarO mutant, primary screen, teichoic acid synthesis inhibitors, RN4220, OD600 (AID 463173); settings: S. aureus RN4220 wild type/DeltatarO growth, OD600, 18 h, active compounds read low, screened at 18.75 µg/mL (by protocol)

| SMILES | survival |
| --- | --- |
| CC1=C(C(=O)Nc2ccccc2)C(c2cccn2C)n2ncnc2N1 (stereo not given) | inactive: 76% |
| Cc1ccc(C)c(Cn2c(C3CC(=O)N(c4ccccc4C)C3)nc3ccccc32)c1 (stereo not given) | inactive: 86% |
| CCN(CC)c1ccc(-c2nc(-c3ccccc3C)no2)cc1[N+](=O)[O-] | inactive: 86% |
| O=C(NCCc1ccccc1Cl)c1ccc2c(c1)nc1n2CCCCC1 | inactive: 87% |
| COc1ccc(Cn2c(=O)c3oc4ccccc4c3n(CC(=O)Nc3ccc(F)cc3F)c2=O)cc1 | inactive: 76% |
| Cc1ccc(Cl)cc1N1CCN(Cc2nnc(-c3ccc4c(c3)OCO4)o2)CC1 | inactive: 84% |
| CC(C)(C)c1ccc(C(=O)NC2CCNCC2)cc1 | inactive: 108% |
| Cc1cc(NC(=O)C2CCN(S(=O)(=O)c3ccc(Br)s3)CC2)ccc1Br | inactive: 71% |
| Cc1ccc(NC(=O)C2C3C=CC4(O3)C2C(=O)N(c2ccccc2F)C4C(=O)NC2CCCC2)cc1 (stereo not given) | inactive: 84% |
| O=S(=O)(c1ccc2nc(N3CCN(c4cccc(Cl)c4)CC3)ccc2c1)N1CCCCC1 | inactive: 55% |
| Cc1ccc(CNC(=O)CSc2n[nH]c(-c3ccc(F)cc3)n2)cc1 | inactive: 124% |
| O=C(N/N=C/c1ccccc1)c1[nH]ncc1I | inactive: 105% |
| Fc1ccc(-c2noc3ncnc(NCCCN4CCN(c5ccccc5)CC4)c23)cc1 | inactive: 71% |
| Cc1ccc2c(=O)cc(C(=O)Nc3sc4c(c3C(=O)NCc3cccnc3)CCCC4)oc2c1C | inactive: 117% |
| COc1ccc(Cn2ccc3nc(C)c(C(=O)NCc4ccc(F)cc4)cc3c2=O)cc1 | inactive: 101% |
| O=c1oc2c(CN3CCN(CCO)CC3)c(O)ccc2cc1-c1ccccc1 | inactive: 74% |
| COc1ccc(C(=O)NCC(c2ccc(N(C)C)cc2)N2CCc3ccccc32)c(OC)c1 (stereo not given) | inactive: 79% |
| COc1cccc(NC(=O)CC2NCCNC2=O)c1 (stereo not given) | inactive: 85% |
| Cc1ccc(NC(=O)CCc2c(C)nc3cc(-c4ccccc4)nn3c2C)cc1F | inactive: 68% |
| COc1ccc(-c2nc3c(C#N)c[nH]n3c2NC2CCCC2)c(OC)c1 | inactive: 83% |
| CCc1cc(C(=O)Nc2cnn(Cc3ccccc3C)c2)no1 | inactive: 84% |
| COc1ccc(S(=O)(=O)NCC(c2ccco2)N2CCOCC2)cc1OC (stereo not given) | inactive: 76% |
| CCCCCNC(=O)CCCCCn1c(=O)[nH]c2ccsc2c1=O | inactive: 62% |

| SMILES | survival |
| --- | --- |
| COc1ccc(CNC(=O)C2CCN(c3nc4ccccc4[nH]3)CC2)cc1OC | inactive: 47% |
| O=C(Nc1sc2c(c1C(=O)NCC1CCCO1)CCC2)c1cc(=O)c2ccccc2o1 (stereo not given) | inactive: 82% |
| Cc1nc2cc(N3CCN(C)CC3)c(NC(=O)C3CC3)cc2c(=O)n1Cc1ccccc1 | inactive: 112% |
| COCCCNc1oc(-c2ccc(COc3ccc(Cl)cc3)o2)nc1C#N | inactive: 47% |
| COc1ccc(Cn2c(=O)c3oc4ccccc4c3n(Cc3ccc(Cl)cc3)c2=O)cc1 | inactive: 119% |
| CCOC(=O)c1c(S(=O)(=O)N2CCCC(C(=O)Nc3cccc(C)n3)C2)c(C)n(C)c1C (stereo not given) | inactive: 82% |
| CCOc1ccc(C2CC(=O)Nc3c2c(=O)nc(SCc2ccccc2C)n3C)cc1OC (stereo not given) | inactive: 80% |
| CCn1cc(C(=O)OCC(=O)Nc2cccc(C(C)=O)c2)c(=O)c2ccc(C)nc21 | inactive: 77% |
| Cc1ccc2c(=O)cc(C(=O)Nc3cccc(C(F)(F)F)c3)oc2c1C | inactive: 80% |
| Cc1cccn2c(=O)c3cc(C(=O)NC(C)c4ccccc4)c(=N)n(CCCO)c3nc12 (stereo not given) | inactive: 77% |
| CCOC(=O)c1c(C)[nH]c(C)c1S(=O)(=O)N1CCCC(C(=O)N2CCN(c3ccccc3)CC2)C1 (stereo not given) | inactive: 91% |
| CCOCCc1nn2c(=O)cc(COC(=O)C3CCCCC3)nc2s1 | inactive: 72% |
| COC(=O)c1ccc(OCC2c3cc(OC)c(OC)cc3CCN2C(=O)c2ccc(F)cc2)cc1 (stereo not given) | inactive: 88% |
| O=C(Cn1nnc(-c2ccccc2Cl)n1)Nc1ccc(Br)cc1 | inactive: 75% |
| Cc1ccc(NC(=O)CSc2nnc3scc(-c4ccccc4)n23)cc1 | inactive: 43% |
| O=C(O)c1nnc(Cl)c2ccccc12 | inactive: 90% |
| O=C(NCCCN1CCN(c2ccc(F)cc2)CC1)c1ccc2nc(Cc3ccccc3)oc2c1 | inactive: 82% |
| CCOc1ccc(CN2CCc3nc(Nc4ccc(OC)cc4OC)ncc3C2)cc1 | inactive: 71% |
| Cc1ccc2sc(NC(=O)c3ccc4c(c3)OCCO4)nc2c1C | inactive: 69% |
| COc1ccc2c(c1)c1c(c(=O)n(-c3ccc(F)c(Cl)c3)c(=O)n1Cc1ccccc1C)n2C | inactive: 73% |
| COc1ccc(NC(=O)c2c(-c3ccc(C)cc3)nnc3ccccc23)c(OC)c1 | inactive: 71% |
| CCN(CC)c1nc2ccccc2nc1C(=O)Nc1cccc(C(C)=O)c1 | inactive: 102% |
